Results taken from article PMC4802085.
No constants are given. Whether binding was seen depends on the method and setting. For some of these results: Binding seen in cells or lysates may run through a third protein. Some binding calls cover weakened binding; strength is not graded here.

Chains of the proteins cited; added tags and fusions are not shown. Lines headed by an entry give the natural chain unless they say otherwise; changes in a name come on top. A line that says so, or that is headed by a name, gives the form on record, which may keep a tag or linker. Residues count along the entry.
UniProt O00264: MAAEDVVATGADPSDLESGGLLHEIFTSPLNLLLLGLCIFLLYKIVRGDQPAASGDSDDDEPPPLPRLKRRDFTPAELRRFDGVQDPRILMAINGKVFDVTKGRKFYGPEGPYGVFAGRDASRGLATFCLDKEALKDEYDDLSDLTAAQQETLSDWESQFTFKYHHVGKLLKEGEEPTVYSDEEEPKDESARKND
FLAG-PGRMC1 wild-type (a.a.44–195): residues 44-195 of O00264
PGRMC1 Y113F mutant (a.a.44–195) (O00264, form named): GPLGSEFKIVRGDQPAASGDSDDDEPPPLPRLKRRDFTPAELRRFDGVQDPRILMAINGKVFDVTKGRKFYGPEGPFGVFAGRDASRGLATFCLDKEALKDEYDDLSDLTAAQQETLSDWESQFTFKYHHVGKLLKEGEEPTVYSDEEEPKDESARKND
FLAG-PGRMC1 Y113F mutant (a.a.44–195) (O00264, form named): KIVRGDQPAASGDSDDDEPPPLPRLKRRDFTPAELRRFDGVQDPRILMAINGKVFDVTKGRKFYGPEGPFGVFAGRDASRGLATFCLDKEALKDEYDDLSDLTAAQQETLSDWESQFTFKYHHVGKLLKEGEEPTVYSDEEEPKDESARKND

What was measured:
[1] = target: FLAG-PGRMC1 wild-type (full length) (human) (UniProt O00264); test: co-IP; FLAG-PGRMC1 over-expressed in HCT116 cells, NP40 lysis buffer (20 mmol l^−1 Tris-HCl (pH 7.5), 150 mmol l^−1 NaCl, 1% NP40), anti-FLAG (M2) agarose, blots for PGRMC1 and EGFR; cells with or without 250 μmol l^−1 succinylacetone (SA) for 48 h
[2] = target: C129S mutant of PGRMC1 expressed in cells (human) (UniProt O00264); test: as above
[3] = target: FLAG-PGRMC1 Y113F (full length) (human) (UniProt O00264); test: as above
[4] = target: PGRMC1 Y113F mutant (a.a.44–195) (human) (UniProt O00264); test: SEC; with haem, ferric or ferrous (5 mmol l^−1 dithionite); Superdex 200, 20 mmol l^−1 Tris-HCl (pH 7.5), 100 mmol l^−1 NaCl, 10 μg protein; both purified
[5] = target: FLAG-PGRMC1 Y113F mutant (a.a.44–195) (human) (UniProt O00264); test: co-IP; in vitro binding assay: 1 μg purified EGFR with 10 μg FLAG-PGRMC1 (a.a.44–195) treated with 50 μmol l^−1 haemin, anti-FLAG (M2) agarose; 20 mmol l^−1 HEPES-NaOH (pH 7.9), 100 mmol l^−1 NaCl, 0.2 mmol l^−1 EDTA, 10% glycerol, 0.1% NP40, room temperature; both purified
[6] = target: FLAG-PGRMC1 wild-type (a.a.44–195) (human) (UniProt O00264); test: condition: only with 10 μmol l^−1 CORM3 (CO-releasing molecule); co-IP; in vitro binding assay as a14, haem-bound FLAG-PGRMC1, 5 mmol l^−1 sodium dithionite, with 10 μmol l^−1 CORM3 (CO-releasing molecule); both purified
[7] = target: FLAG-PGRMC1 wild-type (a.a.44–195) (human) (UniProt O00264); test: co-IP; in vitro binding assay as a14 with FLAG-PGRMC1 in apo form (no haemin); both purified

For “EGFR of HCT116 cells (from UniProt P00533 25-1210) (receptor)”, the binding [1] was “binds”, the binding [2] was “binds” and the binding [3] was “no binding”.
In the case of “PGRMC1 Y113F mutant (a.a.44–195) (from UniProt O00264 44-195) (domain or fragment)”, the binding [4] is reported as “no binding”.
With “purified EGFR (epidermal growth factor receptor) (from UniProt P00533 25-1210)” the binding [5] was “no binding”, the binding [6] was “no binding” and the binding [7] was “no binding (condition: without haem (apo form))”.
